Test results taken from PMC4336329 (PLoS ONE, 2015).
Screen size: about 310,000 compounds; about 14,000 (4.5%) showed an effect of 50% or more. The effect is printed as a negative number. This is one part of the list.

What follows are compounds tested against human ether-à-go-go-related gene (hERG) potassium channel (human, UniProt Q12809) (assay: primary screen, population patch clamp on CHO cells stably expressing hERG).
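Note: peak tail current of the secondary pulse compared with the same well before compound.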

human ether-à-go-go-related gene (hERG) potassium channel, sequence (Q12809 whole entry, looked up): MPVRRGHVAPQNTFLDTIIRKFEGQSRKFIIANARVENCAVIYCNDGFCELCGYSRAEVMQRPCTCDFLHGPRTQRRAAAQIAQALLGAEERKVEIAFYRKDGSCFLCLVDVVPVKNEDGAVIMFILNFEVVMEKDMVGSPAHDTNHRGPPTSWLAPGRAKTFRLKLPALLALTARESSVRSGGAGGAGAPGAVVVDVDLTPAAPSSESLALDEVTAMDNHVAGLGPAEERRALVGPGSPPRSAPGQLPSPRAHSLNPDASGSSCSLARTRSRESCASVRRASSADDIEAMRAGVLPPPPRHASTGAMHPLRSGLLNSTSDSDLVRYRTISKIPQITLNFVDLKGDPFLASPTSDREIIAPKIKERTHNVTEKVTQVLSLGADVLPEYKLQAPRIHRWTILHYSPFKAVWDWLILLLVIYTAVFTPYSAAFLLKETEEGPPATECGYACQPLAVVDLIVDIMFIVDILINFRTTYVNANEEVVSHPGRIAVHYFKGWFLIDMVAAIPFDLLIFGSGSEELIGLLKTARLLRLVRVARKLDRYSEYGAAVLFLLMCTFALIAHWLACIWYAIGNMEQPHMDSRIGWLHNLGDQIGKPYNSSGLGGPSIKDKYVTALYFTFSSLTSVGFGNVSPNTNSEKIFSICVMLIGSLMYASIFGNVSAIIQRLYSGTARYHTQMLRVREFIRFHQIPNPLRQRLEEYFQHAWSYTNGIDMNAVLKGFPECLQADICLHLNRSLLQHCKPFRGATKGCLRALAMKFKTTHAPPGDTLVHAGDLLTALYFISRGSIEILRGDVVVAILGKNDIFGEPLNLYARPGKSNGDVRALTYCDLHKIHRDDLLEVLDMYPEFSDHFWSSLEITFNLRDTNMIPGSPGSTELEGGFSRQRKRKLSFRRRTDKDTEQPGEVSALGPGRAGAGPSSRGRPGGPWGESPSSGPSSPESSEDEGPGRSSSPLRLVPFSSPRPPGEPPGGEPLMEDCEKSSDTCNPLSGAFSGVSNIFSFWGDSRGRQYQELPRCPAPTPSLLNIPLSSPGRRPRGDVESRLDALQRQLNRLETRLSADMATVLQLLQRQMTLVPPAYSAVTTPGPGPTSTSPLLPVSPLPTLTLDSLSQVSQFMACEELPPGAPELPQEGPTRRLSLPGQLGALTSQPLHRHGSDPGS

Compound	hERG current change (%, negative = inhibition) at 10uM [%]
O=c1[nH]c2cc3c(cc2cc1CN(Cc1ccco1)C(=S)NCCCN1CCOCC1)OCCO3	-14.7
CCOC(=O)Cc1cc(=O)n2[nH]c(C)c(-c3ccccc3OC)c2n1	12
O=[N+]([O-])c1cccnc1NCCc1c[nH]c2ccccc12	17.3
CCn1c(=O)n(CC)c2cc(S(N)(=O)=O)c(C)cc21	2.51
COC(=O)c1[nH]c2ccccc2c1NC(=O)CN1CCC(C(N)=O)(N2CCCCC2)CC1	-35.1
OC1COC(OCc2ccccc2)C(O)C1O (centres unmarked)	19.3
COc1ccc(CNC(=O)[C@H](C)[C@@H]2C[C@@]2(C)[C@@H](NC(=O)OCc2ccccc2)c2ccccc2)cc1OC	-35.7
O=C(NNS(=O)(=O)c1cccc(Cl)c1Cl)c1cccc(S(=O)(=O)N2CCOCC2)c1	-16.9
COc1cccc(C2C3=C(CC(C)(C)CC3=O)OC(N)=C2[N+](=O)[O-])c1 (centres unmarked)	3.82
CN1C=CC=C/C1=C(\C#N)c1nc2ccccc2[nH]1	-28.5
COc1ccc(N)cc1-n1c(C)ccc1C	14.5
COC(=O)c1c(C)[nH]c(C(=O)/C=C/c2ccccc2F)c1C	7.77
COc1ccc(S(=O)(=O)NC(C)CCc2ccccc2)cc1 (centres unmarked)	-3.49
Cc1ccc(-n2c(SCC(N)=O)nnc2-c2ccccn2)cc1	1.91
N=C(N)n1c(N)nc2ccccc2c1=O	15
c1ccc(N2CCN(c3nc4cc5c(cc4s3)OCO5)CC2)cc1	-11.2
O=C(O)C1CC(=O)N(c2ccc(OCc3ccc(Cl)cc3Cl)cc2)C1 (centres unmarked)	-13
CN1CCN(C(=O)c2ccc(Oc3ccc([N+](=O)[O-])cc3)cc2)CC1	-50.6
Cc1ccc(S(=O)(=O)N/N=C/c2ccc(O)c(O)c2)cc1[N+](=O)[O-]	18
CN(CC(=O)Nc1ccc(F)cc1)C(=O)CCc1ccccc1	10.6
CCC(C)C(=O)Nc1nc(C)c(-c2csc(Nc3cc(OC)ccc3OC)n2)s1 (centres unmarked)	6.52
CCn1nc(C)cc1Nc1ccccc1	-8.17
CN1CCN(C(=O)c2ccc(CS(=O)Cc3ccc(Cl)cc3)o2)CC1 (centres unmarked)	13.1

Compound	hERG current change (%, negative = inhibition) at 10uM [%]
CNC(=O)C(=O)Nc1cc2c3c(c1)C(C)C(=O)N3CCC2 (centres unmarked)	7.26
CCSC1=NCCN1S(=O)(=O)c1ccccc1	-4.34
CCOc1ccc(CN2CCN(Cc3c[nH]c4ccccc34)CC2)cc1.O=C(O)C(=O)O	-84.4
CN1CCC(O)(c2ccc(Cl)cc2)C(C(=O)c2ccc(Cl)cc2)C1 (centres unmarked)	-67.7
Cc1ccc[n+](/C(C(=S)NCc2ccco2)=C(/[O-])c2ccccc2Cl)c1	-24.6
COc1cc(CO)ccc1OCC(=O)N1CCc2ccccc21	9.76
O=C(O)Cn1cc(/C=C2\C(=O)NC(=O)N(c3ccc(F)cc3)C2=O)c2ccccc21	12.4
Cc1ccc2nc(Cl)c(C3CC(c4cccs4)=NN3S(C)(=O)=O)cc2c1 (centres unmarked)	24.3
CN1CCN(C(=O)CN(C2CCCCC2)S(=O)(=O)c2ccc(Br)cc2)CC1	-11.8
CS(=O)(=O)N1CCC(C(=O)Nc2cccc(Br)c2)CC1	-9.04
Cc1onc(-c2ccccc2)c1C(=O)N/N=C/c1cc(Br)c(Br)o1	-0.967
O=C(COC(=O)c1cccnc1)c1ccc(Cl)cc1	4.51
COC(=O)Nc1cc(C(=O)c2ccc(Cl)cc2Cl)c[nH]1	1.09
COc1cc2cc(CN(CCCN3CCOCC3)C(=O)Nc3ccc(F)cc3)c(=O)[nH]c2cc1OC	-33.2
COc1ccc(Cl)cc1C(=O)NCCN(C)C	4.57
CCOCCCNC(=S)NCCc1ccccc1	28.3
Cc1cccc(Nc2nc(N)nc(CC(=O)CSc3ccc(Cl)cc3)n2)c1	4.27
O=C(NCc1cccc(F)c1)C1CCC(=O)N(CCc2cccc(F)c2)C1 (centres unmarked)	-30.7
Cl.O=C(c1cc2c(s1)CCCC2)N1CCN(Cc2ccc3c(c2)OCO3)CC1	-54.2
Cc1cc(C)c(NC(=O)C2CC(=O)N(c3ccc4c(c3)OCCO4)C2)c(C)c1 (centres unmarked)	-8.92
CCOC(=O)C1=C(C)NC(C)=C(C(=O)OCC)C1c1ccc(OC)cc1	-14.2
CC(C)(C)C(=O)Nc1ccc(C(=O)CSc2nnc(C3CC3)n2C2CC2)cc1	3.48
O=C(CNS(=O)(=O)c1ccccc1)OCC(=O)c1ccc(F)cc1	10.9

Compound	hERG current change (%, negative = inhibition) at 10uM [%]
CCOC(=O)C1CCCN(Cc2sccc2C)C1 (centres unmarked)	-16.7
O=c1cc(-c2ccco2)nc(SCc2cccc(Cl)c2)[nH]1	22.4
O=C(CN1C(=O)CC(c2ccco2)Sc2ccccc21)Nc1ccc2c(c1)OCCO2 (centres unmarked)	-6.73
COc1ccc(S(=O)(=O)NCCSCc2cccc(C)c2)cc1Br	-0.641
Cc1ccc(C)c(S(=O)(=O)N2CCN(C(=O)C(C)Sc3ccccc3)CC2)c1 (centres unmarked)	-10.4
Cc1ncc(CO)c(/C=N/NC(=S)Nc2ccc(Cl)c(Cl)c2)c1O	11.9
Cc1nn(-c2ccc(N3CCCCC3)nn2)c(C)c1CCC(=O)Nc1ccccc1F	1.88
COCCCNCCOc1cc(C(C)C)ccc1C	-14.1
COC(c1ccccc1)c1nnc(CCC(=O)N(C)CCCC2CCCC2)o1 (centres unmarked)	-2.44
Cc1ccccc1C(=O)Nc1nnc(S(=O)(=O)N2CCCCC2)s1	3.83
COc1ccccc1CC(=O)Nc1cccc(S(=O)(=O)N2CCOCC2)c1	4.54
COC(=O)c1cc2c(C)c(C)c3ccccn3c-2c1C(=O)OC	16
O=C(Cn1nnc(-c2ccccc2)n1)N1CCCCC1	15
COc1ccc(S(=O)(=O)N/N=C\c2ccc3c(c2)OCO3)c(OC)c1	8.48
Cc1onc(-c2c(F)cccc2Cl)c1C(=O)Nc1nnc(C2CC2)s1	3.74
COc1cccc(C2=NOC(C(=O)NCc3ccc(F)cc3)C2)c1 (centres unmarked)	-16.2
CCc1ccc(C2NC(=O)c3ccccc3O2)cc1 (centres unmarked)	1.84
Cc1ccc(C)c(-n2c(SCC(=O)NCC3CCCO3)nnc2-c2ccoc2C)c1 (centres unmarked)	6.82
CCOC(=O)COc1c(Cl)cc(C2NC(=S)NC(c3ccccc3)=C2C(C)=O)cc1OC (centres unmarked)	-18.9
Fc1ccc(NC(=S)Nc2cccc3ccccc23)cc1F	8.71
C1CCc2c(nc3nnnn3c2NC2CCCC2)C1	0.307
Cc1sc2nc(SCC(=O)N(C)c3ccccc3)n(C)c(=O)c2c1C	-8.65
CC12CCC(C(=O)N(NC(=O)c3ccccc3Cl)C1=O)C2(C)C (centres unmarked)	10.5

Compound	hERG current change (%, negative = inhibition) at 10uM [%]
CCN(CCO)Cc1cn[nH]c1-c1ccc(C)c(C)c1	9.28
CCC(=O)N1N=C(c2cccs2)CC1c1ccc(OC)cc1 (centres unmarked)	15.9
Fc1ccc(-c2nc3ccccc3c3nc4ccccc4n23)cc1	4.01
CC(=O)Nc1cccc(-c2nc3ccccc3s2)c1C	-0.0879
Cc1ccc(S(=O)(=O)NC(CN2CCOCC2)=NCCNS(=O)(=O)c2ccccc2)cc1	-0.0753
Cc1ccc(NC(=O)CNC(=O)c2cccs2)c(O)c1	15.1
Cc1ccccc1C(=O)N1CCC(C(=O)N(C)CC(=O)Nc2cccc(F)c2)CC1	12.4
CCN(CC)P(=O)(c1n(CC)cc[n+]1CC)N(CC)CC.[I-]	15.1
O=C(NCCCN1CCOCC1)c1ccccc1NS(=O)(=O)c1ccc(F)cc1	-41.5
NC(=O)COC(=O)c1cccc(S(=O)(=O)N2CCCCC2)c1	7.71
COC(=O)c1sc(-c2ccccc2)cc1NC(=O)c1cc(OC)cc(OC)c1	14
O=C(CCn1c(=S)[nH]c2ccccc2c1=O)N1CCCCC1	1.66
Cc1ccc(S(=O)(=O)N2CCCCC2CCNC(=O)C(=O)NC2CCCC2)cc1 (centres unmarked)	-37.5
CC(=O)c1c(N2CCN(c3ccccn3)CC2)nc(=S)n(-c2ccccc2)c1C	-32.3
O=C(Cn1cnc2sc3c(c2c1=O)CCCC3)NCC(=O)Nc1ccccc1F	15.2
COC(=O)CN(c1ccc(OC)cc1OC)S(=O)(=O)c1ccccc1[N+](=O)[O-]	-13.5
CCOC(=O)c1cc2c(ccn2C)n1Cc1ccc(C#N)cc1	-34.2
O=C(Cc1ncc(C(F)(F)F)cc1Cl)N1CCN(c2ccccn2)CC1	-17.2
O=C1C2C(C(=O)N1CCc1ccccc1)C1C=CC2C12CC2 (centres unmarked)	4.41
COc1cc(/C=N/NC(=O)C(Cc2c[nH]c3ccccc23)NC(=O)OCC(C)C)cc([N+](=O)[O-])c1OCc1ccccc1 (centres unmarked)	6.01
